Some of the results follow.
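Also: jurkat cells carrying a lentiviral library of mutant zinc finger degrons fused to EGFP plus mCherry, mCherry+ cells FACS sorted, degron abundance counted by next-generation sequencing.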

This experiment addresses no compound (DMSO). Put plainly: log2 fold change of degron read counts, EGFP-low vs EGFP+ sorted cells; higher = lower degron-EGFP level without compound (poor expression or instability). The note with it: compound: DMSO control; 18 h.
On to FECPICGANFTQKGNLLRHIKL, for which the “log2 fold change of degron read counts” value is -0.55.
For the sequence FGCEVCGAFFTQKGNLLRHIKL, the “log2 fold change of degron read counts” value was -0.954.
The figure for FSCEICGACFTQKGNLLRHIKL is -2.2; for FTCNVCGAAFTQKGNLLRHIKL it is 0.101.
Take FQCDQCGAPFTQKGNLLRHIKL: the “log2 fold change of degron read counts” value was -2.13.
The figure for FSCDICGAIFTQKGNLLRHIKL is -0.78; for FLCDICGALFTQKGNLLRHIKL it is -0.0437.
The figure for FMCEVCGAAFTQKGNLLRHIKL is -1.33; for FYCNQCGRQFTQKGNLLRHIKL it is 0.061; for FRCEICGRQFTQKGNLLRHIKL it is -0.812.
In the case of FECPQCGACFTQKGNLLRHIKL it was -1.42; in that of LRCEICGFKCTQKGNLLRHIKL, -0.474.
With FTCEVCGADFTQKGNLLRHIKL, the “log2 fold change of degron read counts” value is -2.4.
In the case of FRCNQCGACFTQKGNLLRHIKL it was -0.606; in that of FNCDICGAQFTQKGNLLRHIKL, -0.99.
In the case of FVCDVCGAVFTQKGNLLRHIKL it was -0.95; in that of LICPICGFWCTQKGNLLRHIKL, 1.75.
With FVCEICGRCFTQKGNLLRHIKL, the “log2 fold change of degron read counts” value was -1.52.
The figure for LSCPICGFLCTQKGNLLRHIKL is 1.05; for FGCEQCGAYFTQKGNLLRHIKL it is -0.41.
The figure for FICPICGRIFTQKGNLLRHIKL is 0.92; for LRCNQCGFKCTQKGNLLRHIKL it is 0.964.
For the sequence LACNQCGFPCTQKGNLLRHIKL, the “log2 fold change of degron read counts” value was 0.891.
In the case of LGCNQCGFMCTQKGNLLRHIKL it was 1.27; in that of FQCEICGHVFTQKGNLLRHIKL, -1.27; in that of FLCPVCGAYFTQKGNLLRHIKL, 0.716.
In the case of LRCNQCGFECTQKGNLLRHIKL it was -0.266; in that of FTCEICGAGFTQKGNLLRHIKL, -1.23.
In the case of FECPICGRVFTQKGNLLRHIKL it was -0.524; in that of FHCEVCGAIFTQKGNLLRHIKL, -0.963; in that of FTCEQCGALFTQKGNLLRHIKL, -1.48.
With FICDQCGAMFTQKGNLLRHIKL, the “log2 fold change of degron read counts” value is -1.02.
In the case of FACDQCGAPFTQKGNLLRHIKL it was -1.41; in that of FACNVCGANFTQKGNLLRHIKL, -1.04; in that of FICNQCGRSFTQKGNLLRHIKL, -1.34.
In the case of FWCDVCGAAFTQKGNLLRHIKL it was -0.722; in that of FNCNVCGAMFTQKGNLLRHIKL, -0.608.
For the sequence FECEICGHAFTQKGNLLRHIKL, the “log2 fold change of degron read counts” value was -1.43.
In the case of FECNICGAGFTQKGNLLRHIKL it was -0.0384; in that of FTCEQCGAMFTQKGNLLRHIKL, -1.02.
FICPVCGATFTQKGNLLRHIKL: the “log2 fold change of degron read counts” value was -0.433.
Take FGCDVCGAMFTQKGNLLRHIKL: the “log2 fold change of degron read counts” value is -1.33.
In the case of FGCDVCGASFTQKGNLLRHIKL it was -1.77; in that of FGCEQCGAPFTQKGNLLRHIKL, -0.874.
In the case of FGCDQCGAWFTQKGNLLRHIKL it was 0.0444; in that of FMCNQCGRMFTQKGNLLRHIKL, 0.554.
The figure for FNCPQCGAAFTQKGNLLRHIKL is -1.08.
Consider FICDQCGAQFTQKGNLLRHIKL, for which the “log2 fold change of degron read counts” value was -1.71.
The figure for FGCPICGAIFTQKGNLLRHIKL is 0.771.
In the case of FWCNVCGAPFTQKGNLLRHIKL it was 1.06.

For the origin of these results see the supplement of paper PMC12645437, “Orthogonal IMiD-Degron Pairs Induce Selective Protein Degradation in Cells” (ACS Chemical Biology, 2025).
